Measurements from PubChem BioAssay AID1745853 (National Center for Advancing Translational Sciences (NCATS), 2022).
Some of the results follow. Shown are side measurements of this screen, not its main read-out; they come without a call.

Key:
Assay in all cases: Primary Screen for Target Class Profiling of Small Molecule Inhibitors of Methyltransferases
[1] = biological target: Glycine N-methyltransferase (Homo sapiens) (UniProt Q14749); details: purified enzyme, MTase-Glo SAH luminescence; measured here: GNMT inhibition; at 40 µM; stronger effect = lower value
In short: (§1)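 Each enzyme was reacted with SAM and its substrate, with compounds tested once at 40 uM; SAH formed was read by MTase-Glo luminescence.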

[2] = biological target: Guanidinoacetate N-methyltransferase (Homo sapiens) (UniProt Q14353); details: purified enzyme, MTase-Glo SAH luminescence; measured here: GAMT inhibition; at 40 µM; stronger effect = lower value
In short: as §1

[3] = biological target: Histamine N-methyltransferase (Homo sapiens) (UniProt P50135); details: purified enzyme, MTase-Glo SAH luminescence; measured here: HNMT inhibition; at 40 µM; stronger effect = lower value
In short: as §1

[4] = biological target: Nicotinamide N-methyltransferase (Homo sapiens) (UniProt P40261); details: purified enzyme, MTase-Glo SAH luminescence; measured here: NNMT inhibition; at 40 µM; stronger effect = lower value
In short: as §1

[5] = biological target: Phenylethanolamine N-methyltransferase (Homo sapiens) (UniProt P11086); details: purified enzyme, MTase-Glo SAH luminescence; measured here: PNMT inhibition; at 40 µM; stronger effect = lower value
In short: as §1
% is set by controls: 0 for no effect and ±100 for the full control effect.

Compound	activity change, negative = inhibition [1] [%]	activity change, negative = inhibition [2] [%]	activity change, negative = inhibition [3] [%]	activity change, negative = inhibition [4] [%]	activity change, negative = inhibition [5] [%]
Cc1ccc(Nc2ccn3c(=O)n(CC(=O)Nc4cc(F)cc(F)c4)nc3n2)cc1	-1.17	2.96	-8.95	-20.1	-4.19
COCC(=O)N1CC(C(=O)N2CCCCC2)[C@H](c2ccncc2)C1 (stereo not given in full)	-2.42	-0.522	-0.913	-1.77	1.59
O=C(c1ccccc1)N1CCCC2(CC(c3ccccc3)=NO2)C1 (stereo not given)	-2.48	-0.211	1.41	-1.45	2.8
COc1ccc(C2(C#N)CCC(C(=O)O)CC2)cc1OC1CCCC1 (stereo not given)	6.14	4.76	6.79	-7.74	4.16
CC1CCCCC1NC(=O)C1(C)Cn2c(cc3sccc32)C(=O)N1c1ccc(Cl)cc1 (stereo not given)	-1.98	0	-1.32	-7.06	-1.46
CCC(C(=O)NCc1ccc2c(c1)OCO2)n1ccc2cc(S(=O)(=O)N3CCCCC3)ccc21 (stereo not given)	7.54	0.288	8.14	6.41	6.64
CC[C@H]1OC(=O)[C@H](C)[C@@H](O[C@H]2C[C@@](C)(OC)[C@@H](O)[C@H](C)O2)[C@H](C)[C@@H](O[C@@H]2O[C@H](C)C[C@H](N(C)C)[C@H]2O)[C@](C)(O)C[C@@H](C)C(=O)[C@H](C)[C@H]2OC(=O)O[C@@]21C	-1.92	0.576	9.32	-12.2	2.82
Cc1cccc(-c2n[nH]n3c2nc(=O)c2ccc(C(=O)N4CCN(c5ccccc5F)CC4)cc23)c1	-16.5	0	1.1	-5.59	-3.21
CC(C)CCn1c(=O)c2ccccc2n2c(=O)n(Cc3cccc(F)c3)nc12	-1.84	1.12	6.44	-12.1	-0.89
CC1CCC(NC(=O)C2(C)Cn3c(nc4ccccc43)C(=O)N2CCc2ccc(Cl)cc2)CC1 (stereo not given)	-0.474	3.29	-3.04	-1.26	-6.67
CN1CCC(Oc2ncccc2NC(=O)c2ccncc2)C1 (stereo not given)	-36.6	-17.4	-35.8	-6.03	-25.1
CC(=O)Nc1c2n(c3ccccc13)CC(C)(C(=O)NC1CCCC1)N(Cc1ccccc1F)C2=O (stereo not given)	-1.17	1.27	2.26	-2.5	1.94
O=C(Cn1ccc2cc(S(=O)(=O)N3CCCCC3)ccc21)NCc1ccco1	2.66	5.09	-1.16	-2.36	-0.566
O=C(c1cnccn1)N1CCC(Oc2cccnc2)C1 (stereo not given)	82.3	-0.351	0.414	-0.823	2.3
CC1CCC2(C)C(CC(O)C(O)C23CO3)C1(C)CCC1=CC(=O)OC1O (stereo not given)	-17.5	-2.74	9	-14.9	-7.27
FC(F)(F)c1ccc(O[C@H]2COCCN(Cc3cccnc3)C2)nc1	0.301	2.52	2.76	-2.48	-30.8
